According to patent US20230165981A1, “[161Tb]-BASED RADIOPEPTIDES” (priority 2021, published 2023):

Legend:
AR42J tumor cells [1] = test: Cell uptake and internalization in AR42J tumor cells; format: cell-based, rat; conditions: 1 µM DOTANOC
Protocol: The well-plates were incubated under standard cell culture conditions for 0.5 h, 2 h or 4 h. […] The total uptake and the internalized fractions were determined using a γ-counter (Perkin Elmer, Wallac Wizard 1480). […] Experiments were performed twice or three times in triplicate. Statistical analysis was performed using a two-way ANOVA with Tukey’s multiple comparisons post-test.

AR42J tumor cells [2] = test: Cell uptake and internalization at increasing molar amounts of peptide; format: cell-based, rat; conditions: 2 h
Protocol: Experiments were performed twice in triplicate.

AR42J tumor cells [3] = test: Nuclear localization of the radiopeptides; format: cell-based, rat; conditions: 2 h, 2.5 MBq, 125 pmol
Protocol: The next day, the medium was removed, the tumor cells were washed with PBS (pH 7.4) and 19.5 mL of assay medium was added. The radiopeptides were added in a volume of 0.5 mL (2.5 MBq, 125 pmol) and the tumor cells incubated for 2 h at 37° C. Afterwards, the cells were washed several times with PBS (pH 7.4) to completely remove excess of radiopeptides. Subsequently, the cell nuclei and cytoplasm/membrane fractions were harvested according to the manufacturer’s protocol using the Nucli EZ Prep Nuclei Isolation Kit (Sigma Aldrich, USA). Ice-cold Nuclei EZ lysis buffer (4 mL) were added to each Petri dish to lyse the tumor cells followed by transfer of the cell suspension into Eppendorf tube for centrifugation for 5 min at 500 rcf at 4° C. The supernatant containing cytoplasm/membrane fractions was transferred to a tube for counting activity in a γ-counter. The pellet was resuspended in 4 mL ice-cold Nuclei EZ lysis buffer followed by additional centrifugation for 5 min at 500 rcf at 4° C. […] The measured activity of nuclei and cytoplasm/cell membrane fractions was defined as 100% of the cellular uptake. Nuclear localization was expressed as percentage of total cellular uptake. The collected fractions were stained with 0.4% trypan blue solution and analyzed using a microscope in order to confirm that the nuclei were properly separated from other cell fragments.

AR42J tumor cells [4] = conditions: n=1

Row | Compound | cell uptake with excess DOTANOC (SSTR blocking) (AR42J tumor cells [1]) | decrease of uptake (and internalization) (AR42J tumor cells [2]; 1.5 pmol peptide) | decrease of uptake (and internalization) (AR42J tumor cells [2]; 7.5 pmol peptide) | decrease of uptake (and internalization) (AR42J tumor cells [2]; 75 pmol peptide) | nuclear uptake (AR42J tumor cells [3]) | activity concentration for similar effect (<3% survival) (AR42J tumor cells [4]) [MBq/mL]
1 | C[C@@H](O)[C@@H]1NC(=O)[C@H](CCCCN)NC(=O)[C@@H](Cc2c[nH]c3ccccc23)NC(=O)[C@H](Cc2ccc(O)cc2)NC(=O)[C@@H](NC(=O)[C@@H](Cc2ccccc2)NC(=O)CN2CCN(CC(=O)O)CCN(CC(=O)O)CCN(CC(=O)O)CC2)CSSC[C@@H](C(=O)N[C@H](CO)[C@@H](C)O)NC1=O [[^161Tb]Tb-DOTATOC] [metal not drawn] | prevented the cell uptake | – | – | – | – | –
2 | C[C@@H](O)[C@@H]1NC(=O)[C@H](CCCCN)NC(=O)[C@@H](Cc2c[nH]c3ccccc23)NC(=O)[C@H](Cc2ccc(O)cc2)NC(=O)[C@@H](NC(=O)[C@@H](Cc2ccccc2)NC(=O)CN2CCN(CC(=O)O)CCN(CC(=O)O)CCN(CC(=O)O)CC2)CSSC[C@@H](C(=O)N[C@H](CO)[C@@H](C)O)NC1=O [[^177Lu]Lu-DOTATOC] [metal not drawn] | prevented the cell uptake | ~ 30% | ~ 30% | ~ 90% | < 1 % of total cellular uptake | 5
